The chains are these.
B1: LINE1-mini (parent)
chain: GGCAGAGCUCAACACAGCGUGGCAAAGUGGCUGUGGCUAGACUGCC

The source gives no read counts; variants with many changes may rest on few reads.

The series covers variants of B1. The series is described as follows: self-cleavage, relative activity (ratio to wild type); higher = more cleavage; in vitro, sequencing; the parent is a self-cleaving ribozyme.
A12C G36C C42U: the self-cleavage was 0.02.
As to A12C G22U G35C C45A, the self-cleavage was 0.01.
For the variant A12C A16G G17C C45G, the self-cleavage was determined as 0.08.
As for A12G G27C U32C, the figure is 0.13.
Take A12C G17C G36U C45A C46A: the self-cleavage stood at 0.01.
With A12C G17U C42U, the self-cleavage came to 0.13.
On to A12C C15G C18U, for which the self-cleavage is 0.03.
As to A12C G22C A41C, the self-cleavage came to 0.01.
As to A12C G36A U38C G40U, the self-cleavage came to 0.11.
In the case of A12G G27A G35A, the self-cleavage came out at 0.02.
Turning to A12C U20G G29A U34A, the self-cleavage came to 0.02.
A12C C13A G33A G36U: the self-cleavage amounted to 0.03.
On to A12G U20G G22U, for which the self-cleavage came to 0.03.
Consider A12C C15A G29A, for which the self-cleavage was determined as 0.03.
For the variant A12G G19C G35U A41U U43C C45A, the self-cleavage came to 0.
Regarding A12G A26G U32C G35U, the self-cleavage stood at 0.05.
A12G U28A U34C C37G: the self-cleavage amounted to 0.02.
The figure for A12C U28G C45G is 0.03.
The figure for A12C C15G A16C U38A G40A is 0; for A12G C18A G27C U34G it is 0.01; for A12C C15G G33A C42G it is 0.01.
As to A12G G21U G22A, the self-cleavage was 0.02.
Regarding A12G A16U A41G, the self-cleavage was 0.07.
For A12G G29U G33C C37U A41G C42A, the self-cleavage worked out at 0.02.
As for A12G A14C G22U U34A, the figure is 0.03; as for A12C G19C A41G C46U, 0.03.
The figure for A12C G19U U28C U32G is 0; for A12G G27C G40C it is 0.02; for A12C C18A G30U G40U it is 0.01.
A12G A26G U28G: the self-cleavage stood at 0.01.
The figure for A12G A16C U34G C45G is 0.12; for A12G G19A G27U it is 0.
In the case of A12C C13G G22C G29C C31G, the self-cleavage was 0.01.
The figure for A12G G27C U38G A41C is 0.
A12G C37A C46G: the self-cleavage amounted to 0.05.
In the case of A12G G36A G44A C45U, the self-cleavage turned out to be 0.03.
A12G A16G A41G G44U: the self-cleavage worked out at 0.07.
Take A12G G17C C18A: the self-cleavage was 0.01.
Consider A12G A14C C18G, for which the self-cleavage was 0.01.
The figure for A12C C13U C15G is 0.01.
Consider A12C G29C U38G, for which the self-cleavage was 0.01.
With A12C G22C A26G, the self-cleavage came out at 0.05.
The figure for A12G A14U C23A A25U is 0.01; for A12C A25C U32C G33A C42U G44C C45U it is 0.
With A12C C23U A25U G36A C37U, the self-cleavage stood at 0.03.
For the variant A12G G19C G27A G35U, the self-cleavage was determined as 0.01.
The figure for A12C C23U G27U G40U is 0.04; for A12G G35A G36U it is 0.1.
Take A12C A16U G19C C23A C42G: the self-cleavage amounted to 0.
Consider A12C G19C U20C, for which the self-cleavage is 0.
The figure for A12G C31A C42G is 0.12; for A12G A24G C45A it is 0.04; for A12G A39C C45U it is 0.
Consider A12G G27C C46U, for which the self-cleavage came to 0.03.
As to A12G G22U G33U, the self-cleavage is 0.01.
Take A12G A24G U43C: the self-cleavage turned out to be 0.03.
The figure for A12G G35A C37U is 0.01; for A12G C15G G22A A25C C31G C45A it is 0; for A12C U28A G33U G40C it is 0.03.
Consider A12C C13A C31G, for which the self-cleavage worked out at 0.03.
With A12G C13U A24C, the self-cleavage came to 0.03.
On to A12C A26G G36U, for which the self-cleavage was 0.02.
For A12G C18G G40C, the self-cleavage was determined as 0.09.
With A12G G19C C23U G27U, the self-cleavage is 0.02.
A12G A24G U32A U38A: the self-cleavage amounted to 0.04.
Consider A12C C42G C46U, for which the self-cleavage stood at 0.
As for A12C A24G U28G C42U, the figure is 0; as for A12C C18A C23U, 0.02; as for A12G G17C G36U, 0.02.
As for A12C C13A U20A C37G A41C C45G, the figure is 0.01.
In the case of A12G G27A G40A C42U, the self-cleavage amounted to 0.01.
On to A12G G21A U28G, for which the self-cleavage came to 0.02.
Consider A12C U20C A25C G36A, for which the self-cleavage is 0.02.
In the case of A12G G40A C46U, the self-cleavage worked out at 0.04.
Consider A12C G22U U34C C46U, for which the self-cleavage is 0.
With A12C A16G U20G G33U, the self-cleavage turned out to be 0.02.
As to A12C G30C G35U C46A, the self-cleavage is 0.
In the case of A12G G29A C37U A41C, the self-cleavage turned out to be 0.01.
On to A12G A24C U34C G35A, for which the self-cleavage stood at 0.02.
As to A12C G27C G33C, the self-cleavage was 0.02.
As for A12G C23U C31G U32C A39C C46U, the self-cleavage was 0.01.
Consider A12C G17U U28C G29A C31U C42U, for which the self-cleavage stood at 0.01.
Consider A12C C13G A14U G29A U38A, for which the self-cleavage turned out to be 0.05.
Turning to A12C G19A C31U, the self-cleavage was determined as 0.
As for A12C G19A C46A, the figure is 0.01; as for A12G G27U C31A A39G A41C, 0.
As for A12C G22A G27A G30C U32G, the figure is 0; as for A12C G19A G30U C37U, 0.01.
A12G C18G G22A: the self-cleavage turned out to be 0.02.
As for A12C G17U G30A, the figure is 0.02.
Take A12C C18A C42A: the self-cleavage came out at 0.02.
The figure for A12G G19C G36U is 0.03; for A12C C13G G19U G27U it is 0.02.
With A12C G17C G21A, the self-cleavage was 0.
Consider A12G A41C C46U, for which the self-cleavage was 0.01.
Turning to A12G C31A G40C U43G, the self-cleavage stood at 0.12.
For the variant A12G G19A U20C G22A A25C U28C, the self-cleavage amounted to 0.01.
Consider A12G C13G A41U, for which the self-cleavage was found to be 0.08.
Regarding A12G G19A G21A C23U G30C U32A, the self-cleavage amounted to 0.02.
With A12G A25G C42A, the self-cleavage came to 0.07.
With A12G A26C U38C U43C C46G, the self-cleavage was determined as 0.
The figure for A12C G19C C31G U34C C42U is 0.05; for A12C A25G G35U it is 0.
As for A12G C13U G17U A26G G27A C45A, the self-cleavage amounted to 0.01.
A12C C23U G30C C46G: the self-cleavage was determined as 0.01.
In the case of A12G G29U G33U, the self-cleavage is 0.02.
As for A12C A41C C45A, the figure is 0.01.
The figure for A12G G36A U38A is 0.07; for A12C C23A C45G it is 0.03.
In the case of A12C C13U G21U, the self-cleavage stood at 0.03.
The figure for A12G C13U C31A U32G is 0.01; for A12C G21A U43G it is 0.
As for A12G U28A G33C, the self-cleavage was found to be 0.05.
For the variant A12C C13A G29C G36C C37G, the self-cleavage stood at 0.02.
On to A12C G19U C23U U28C, for which the self-cleavage worked out at 0.22.
The figure for A12G C15A G36A is 0; for A12C A24C A26U C46A it is 0.01.
Regarding A12G U20G A41U, the self-cleavage worked out at 0.
A12C A24G G30C C42U: the self-cleavage was determined as 0.
For the variant A12G A16C G29A G44U C46A, the self-cleavage was found to be 0.
As for A12C C13A C15G G17A A26G U32A A39C, the self-cleavage is 0.07.
Take A12C G17C G19C G36U: the self-cleavage turned out to be 0.05.
Regarding A12C G19A C23G U28G C31A C46U, the self-cleavage was found to be 0.
As for A12C C13G A25G G29A A41U, the figure is 0.
A12G C13U A26U C46G: the self-cleavage came out at 0.01.
Regarding A12C G35C C45A, the self-cleavage was found to be 0.01.
Take A12C U34G A39U C45U: the self-cleavage was found to be 0.
As for A12C A39G A41G, the figure is 0.01.
Regarding A12C G22A A26U C31U, the self-cleavage was 0.
Consider A12G C18A G19A G36U C45G, for which the self-cleavage amounted to 0.01.
Turning to A12G G17C C23A, the self-cleavage is 0.01.
The figure for A12G G30U C31A is 0.05; for A12G A24U G27C G36C C46A it is 0.
As to A12G C13U G19C G21U, the self-cleavage came to 0.02.
A12G C37A G40U G44U: the self-cleavage came to 0.14.
For A12C C13U A14U U20C G21C A25U U28A G40C C42U, the self-cleavage was found to be 0.01.
As for A12C G21U C37U, the figure is 0.01.
For the variant A12G G27U C42G, the self-cleavage was 0.
With A12G C31U G35A, the self-cleavage was determined as 0.01.
Turning to A12G A14C G36A C45U, the self-cleavage stood at 0.01.
Take A12C C31A U38C G40U: the self-cleavage amounted to 0.02.
The figure for A12G G17U C18A U34G G40C C46A is 0.08.
In the case of A12C G21U A39G, the self-cleavage turned out to be 0.01.
Turning to A12G C13A U28G U43A, the self-cleavage worked out at 0.
The figure for A12G U20C U34G is 0.04; for A12C C13G G17C C31A it is 0.02; for A12G C15G G17U C42A it is 0.03.
On to A12G C18A G19U, for which the self-cleavage came to 0.01.
As to A12C C15U C42U, the self-cleavage was 0.04.
Regarding A12C U32G G36C G40U, the self-cleavage is 0.02.
In the case of A12G A16G G19C U28A, the self-cleavage worked out at 0.02.
Regarding A12C A16G U20C A41U, the self-cleavage is 0.01.
A12G A25G G30C: the self-cleavage was 0.03.
The figure for A12C C15G G19U is 0.01; for A12G G40U C42A it is 0.01; for A12G G21U A41U C42U it is 0.71.
In the case of A12C C15U G29U, the self-cleavage is 0.03.
For the variant A12C G19A U20C G21A C23U C31U, the self-cleavage is 0.01.
As for A12C C18U G21U G33U U43A, the self-cleavage was 0.11.
Turning to A12G C13A C15G U20C U43C, the self-cleavage came out at 0.03.
With A12G G21A G27C G40U C42U, the self-cleavage amounted to 0.03.
In the case of A12C G19A A26G C37U A41C, the self-cleavage was 0.01.
With A12C G22A A41C C45G, the self-cleavage came out at 0.
As for A12C A26C C45A, the self-cleavage was found to be 0.
The figure for A12C G17U C23U C45G is 0.04; for A12G C31A G44A it is 0.01; for A12C U20G G29U U34G it is 0.02.

For the origin of these results see the RNAGym collection of RNA variant scans (doi:10.7554/elife.90254).
